Laboratory results published in PubChem BioAssay AID1434 (Sanford-Burnham Center for Chemical Genomics, 2008).
The list shows a part of the results. Shown are side measurements of this screen, not its main read-out; they come without a call. Most of these compounds were active or inconclusive in the main read-out, so they are no random draw.

These molecules were tested against Runt-related transcription factor 1 (Homo sapiens) + Core-binding factor subunit beta (Homo sapiens) (UniProt Q01196+Q13951) (assay: inhibitors of RUNX1 Runt–CBFb-SMMHC binding, primary screen, biochemical, FRET, Cerulean-Runt, Venus-CBFb-SMMHC, uHTS (AID 1434;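 also: 0% = DMSO wells and 100% = wells with excess untagged CBFb-SMMHC; inhibitors lower the FRET ratio by blocking Runt binding to CBFb-SMMHC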)). Conditions: Cerulean-Runt/Venus-CBFb-SMMHC FRET ratio 530/480, 1 h; retest duplicate average; at 20 µM; stronger effect = higher value.
UniProt Q01196, sequence (Q01196 whole entry, looked up): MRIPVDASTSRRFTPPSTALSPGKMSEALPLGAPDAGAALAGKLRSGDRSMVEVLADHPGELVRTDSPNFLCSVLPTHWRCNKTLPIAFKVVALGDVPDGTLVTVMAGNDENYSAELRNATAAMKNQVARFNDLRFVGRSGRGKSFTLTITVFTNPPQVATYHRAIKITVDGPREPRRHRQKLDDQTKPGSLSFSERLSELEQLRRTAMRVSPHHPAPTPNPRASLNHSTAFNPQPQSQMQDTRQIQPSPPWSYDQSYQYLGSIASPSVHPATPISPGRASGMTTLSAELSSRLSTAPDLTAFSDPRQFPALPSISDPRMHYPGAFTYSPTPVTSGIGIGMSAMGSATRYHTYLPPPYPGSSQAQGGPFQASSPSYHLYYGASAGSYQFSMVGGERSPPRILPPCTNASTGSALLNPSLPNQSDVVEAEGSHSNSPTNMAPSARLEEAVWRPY
UniProt Q01196, sequence (Q13951 whole entry, looked up): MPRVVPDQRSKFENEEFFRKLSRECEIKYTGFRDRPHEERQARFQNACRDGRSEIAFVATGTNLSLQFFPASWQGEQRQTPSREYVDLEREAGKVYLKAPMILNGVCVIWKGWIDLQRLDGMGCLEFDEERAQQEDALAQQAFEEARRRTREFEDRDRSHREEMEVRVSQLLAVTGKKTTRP

Q: For CC(NC(=O)OCc1ccccc1)C(=O)Oc1cc2oc(=O)cc(-c3ccccc3)c2cc1Cl (centres undefined), which inhibition is on record?
A: 64.9%

Q: Cc1cccn2c(=O)c3cc(C(=O)NCCc4ccccc4)c(=N)n(CCCn4ccnc4)c3nc12 was tested. Which inhibition did it give?
A: 72.9%

Q: With Cc1ccc(N=Cc2cc3c(cc2O)OC(N)=C(C#N)C3c2ccccc2)cc1 (centres undefined) as the molecule, how does the inhibition read?
A: 98.4%

Q: Cc1c(Cl)sn(-c2ccc(Cl)cc2)c1=O was tested. Which inhibition did it give?
A: 52.4%

Q: For CCCn1nc(NC(=O)c2cccs2)c2cc3cccc(C)c3nc21, which inhibition is on record?
A: 101%

Q: How did the inhibition turn out when CCOC(=O)c1cc(C(=O)OCC)c2ccccn2c1=O was run?
A: 71.5%

Q: Which inhibition does the source give for CN1CCc2c(sc3c2C(=O)NC(c2cccs2)N3)C1 (centres undefined) here?
A: 130%

Q: With Cc1ccc(S(=O)(=O)NC(C(=O)Oc2ccc3ccc(=O)oc3c2)c2ccccc2)cc1 (centres undefined) as the molecule, how does the inhibition read?
A: 144%

Q: For CN1CCc2c(sc3c2C(=O)NC(c2ccc(-c4cccc(Cl)c4)o2)N3)C1 (centres undefined), which inhibition is on record?
A: 135%

Q: Which inhibition does the source give for Nc1cccc2c1C(=O)N(C(=O)c1ccc(S(=O)(=O)N3CCCCCC3)cc1)C2=O here?
A: 72.9%

Q: How did the inhibition turn out when CC1=C(C#N)C(=O)OC(C)(C)C1 was run?
A: 60.1%

Q: How did the inhibition turn out when O=c1[nH]c2cc3c(cc2cc1CN(CCc1ccccc1)Cc1nnnn1CC1CCCO1)OCO3 (centres undefined) was run?
A: 72.9%

Q: With Nc1c(C(=O)NC2CCCCC2)c2nc3ccccc3nc2n1/N=C/c1ccco1 as the molecule, how does the inhibition read?
A: 85%

Q: How did the inhibition turn out when Cc1cc(Nc2ccccc2)nc2cc(O)ccc12 was run?
A: 88.2%

Q: For COc1ccc2c(C#N)c3ccccn3c2c1, which inhibition is on record?
A: 70.6%

Q: With CN1CC=C2C(C#N)=C(N)C(C#N)(C#N)[C@H](c3cccc(Cl)c3)C2C1 (some centres undefined) as the molecule, how does the inhibition read?
A: 86.4%

Q: Which inhibition does the source give for O=C(c1ccccc1)c1ccccc1N1C(=O)C=CC1=O here?
A: 66%

Q: How did the inhibition turn out when Nc1cccc2c1C(=O)N(C(=O)c1ccc(Cl)c(S(=O)(=O)N3CCCCCC3)c1)C2=O was run?
A: 72.9%

Q: How did the inhibition turn out when Cc1nc2[nH]c(=O)c3c(n2n1)NC1=C(C(=O)CC(C)(C)C1)C3c1ccc(F)cc1 (centres undefined) was run?
A: 158%

Q: N#Cc1c(N)n(CCCN2CCOCC2)c2nc3ccccc3nc12 was tested. Which inhibition did it give?
A: 142%

Q: CC(=O)c1c(N2CCN(C)CC2)nc(=S)n(-c2cc(C)ccc2C)c1C was tested. Which inhibition did it give?
A: 73.2%

Q: Which inhibition does the source give for CCCCNC(=O)c1cc2c(=O)n3cccc(C)c3nc2n(Cc2ccccc2)c1=N here?
A: 72.9%

Q: Which inhibition does the source give for C=CCN(CC=C)c1nc2ccccc2nc1C(C#N)C(=O)OCCOC (centres undefined) here?
A: 50.2%

Q: How did the inhibition turn out when OCC(Cc1ccccc1)Nc1c2ccccc2nc2ccccc12 (centres undefined) was run?
A: 71.5%

Q: With Clc1ccc(-c2ccnc(-n3cccc3)n2)s1 as the molecule, how does the inhibition read?
A: 72.8%

Q: How did the inhibition turn out when O=C(CCC(=O)N/N=C/c1cc(Cl)cc(Cl)c1O)NCc1ccccc1 was run?
A: 70.6%

Q: With CCOc1cc(-c2cc(-c3ccc(N)cc3)nc(N)c2C#N)ccc1O as the molecule, how does the inhibition read?
A: 94.4%

Q: With CNc1oc(/C=C/c2ccccc2)nc1C#N as the molecule, how does the inhibition read?
A: 70.9%

Q: With Cc1cccn2c(=O)c3cc(C#N)c(=NC(=O)c4ccco4)n(Cc4ccco4)c3nc12 as the molecule, how does the inhibition read?
A: 70.7%

Q: How did the inhibition turn out when CC(=O)c1sc2nc(-c3cccs3)ccc2c1N was run?
A: 92.3%

Q: With CCCCN(CCCC)c1nc2ccccc2nc1NS(=O)(=O)c1ccc(NC(C)=O)cc1 as the molecule, how does the inhibition read?
A: 111%

Q: For Nc1cccc2c1C(=O)N(C(=O)c1cccc(S(=O)(=O)N3CCCCCC3)c1)C2=O, which inhibition is on record?
A: 72.9%

Q: For COc1cc(-c2nnc(SCc3cc(=O)oc4cc(O)c(O)cc34)o2)cc(OC)c1OC, which inhibition is on record?
A: 102%

Q: For Cc1cc2cc(C#N)c(NCCNC(=S)NCCCN3CCOCC3)nc2cc1C, which inhibition is on record?
A: 102%

Q: For Nc1cccc2c1C(=O)N(C(=O)c1ccco1)C2=O, which inhibition is on record?
A: 55.5%

Q: For COc1cc(OC)c(C2CC(=O)N3CN(c4ccccc4C)CSC3=C2C#N)cc1OC (centres undefined), which inhibition is on record?
A: 71.4%

Q: With CCCc1cc2c(OC(=O)CC)c(-c3ccc(C(=O)OCC)o3)c(=O)oc2cc1OC as the molecule, how does the inhibition read?
A: 10.1%

Q: CC(C)OCCCn1c(=NC(=O)c2cccs2)c(C#N)cc2c(=O)n3ccccc3nc21 was tested. Which inhibition did it give?
A: 70.6%

Q: With Nc1cccc2c1C(=O)N(C(=O)/C=C/c1cccc(Br)c1)C2=O as the molecule, how does the inhibition read?
A: 64%

Q: With CN1CCc2c(sc(N)c2C(=O)O)C1 as the molecule, how does the inhibition read?
A: 146%

Q: For Cc1cc(-c2nc3cccnc3s2)ccc1NS(=O)(=O)c1cccs1, which inhibition is on record?
A: 166%

Q: With CC(=O)N=c1c(C#N)cc2c(=O)n3ccccc3nc2n1CCCOC(C)C as the molecule, how does the inhibition read?
A: 70.6%

Q: How did the inhibition turn out when CCN(CC)c1cc(C)c(C#N)c2nc3ccccc3n12 was run?
A: 101%

Q: With Cc1ccc2c3c(cccc13)-c1ccccc1C2=O as the molecule, how does the inhibition read?
A: 71.5%

Q: For CCN(CC)c1ccc2ccc(=O)oc2c1, which inhibition is on record?
A: 70.6%

Q: For Cc1cccc(NC(=O)CSc2cc(C)c(C#N)c3nc4ccccc4n23)c1, which inhibition is on record?
A: 70.6%

Q: CCN(CC)c1ccc2cc(C=O)c(=O)oc2c1 was tested. Which inhibition did it give?
A: 72.9%

Q: With Cc1cccc2cc(C#N)c(NCCNS(=O)(=O)c3ccc4c(c3)OCCO4)nc12 as the molecule, how does the inhibition read?
A: 91.2%

Q: How did the inhibition turn out when O=c1[nH]c2ccccc2nc1-c1cccs1 was run?
A: 186%

Q: For CC1=CC(c2ccc(Cl)cc2)n2nc(NS(=O)(=O)c3ccc(C)cc3)nc2N1 (centres undefined), which inhibition is on record?
A: 75.8%

Q: For CCC(C)n1c(=N)c(C#N)cc2c(=O)n3ccccc3nc21 (centres undefined), which inhibition is on record?
A: 71.5%

Q: Cc1ccc2sc3ccc(NC(=O)c4ccccc4Cl)cc3c(=O)c2c1 was tested. Which inhibition did it give?
A: 57.6%

Q: O=c1oc2cc(O)ccc2cc1-c1nc2c(s1)CCc1ccccc1-2 was tested. Which inhibition did it give?
A: 71.5%

Q: With Cc1ccc(Oc2nc3ccccn3c(=O)c2/C=C(\C#N)C(=O)NC2CCS(=O)(=O)C2)cc1 (centres undefined) as the molecule, how does the inhibition read?
A: 114%

Q: N#C/C(=C\c1ccc(O)c(Br)c1)C(=O)NCc1ccccc1 was tested. Which inhibition did it give?
A: 180%

Q: For COc1ccccc1C(=O)c1cc2ccc(O)cc2oc1=O, which inhibition is on record?
A: 172%

Q: How did the inhibition turn out when Cc1c(Cc2ccccc2)c(=O)oc2cc(O)ccc12 was run?
A: 143%

Q: Which inhibition does the source give for CCNC(=O)C1=C(O)c2sccc2N(C)S1(=O)=O here?
A: 74.7%

Q: For CCc1c(C)c(C#N)c2nc3ccccc3n2c1Nc1c(C)n(C)n(-c2ccccc2)c1=O, which inhibition is on record?
A: 99%

Q: For COc1ccc2cc(C(C)=O)c(=O)oc2c1, which inhibition is on record?
A: 61.9%

Q: With CC(=O)N(c1ccc2oc(=O)sc2c1)S(=O)(=O)c1cccs1 as the molecule, how does the inhibition read?
A: 56.7%

Q: Cc1ccccc1S(=O)(=O)c1cc(C#N)c(=O)[nH]c1N was tested. Which inhibition did it give?
A: 173%

Q: Which inhibition does the source give for CCCCOC(=O)C(C#N)c1nc2ccccc2nc1N1CCN(Cc2ccc3c(c2)OCO3)CC1 (centres undefined) here?
A: 82.5%

Q: O=C(O)c1ccc(N/N=C/c2ccc(-c3ccc(Cl)cc3Cl)o2)cc1 was tested. Which inhibition did it give?
A: 70.7%

Q: With N#Cc1c(NC(=O)CSc2ncc(-c3ccccc3)n2CC2CCCO2)sc2c1CCCC2 (centres undefined) as the molecule, how does the inhibition read?
A: 86.1%

Q: With CC(C)n1c(=NC(=O)c2ccco2)c(C#N)cc2c(=O)n3ccccc3cc21 as the molecule, how does the inhibition read?
A: 71.5%

Q: Which inhibition does the source give for O=C(O)C(=O)/C(=C\c1ccc(Cl)cc1)c1ccc2ccccc2n1 here?
A: 125%

Q: With COc1ccc(N/C=C2/Sc3ccccc3NC2=O)cc1 as the molecule, how does the inhibition read?
A: 51.4%

Q: Which inhibition does the source give for CCC(=O)NC1=C(Cl)C(=O)C(NC(=O)CC)=C(Cl)C1=O here?
A: 68.3%
